Among all 310,000 compounds or so, about 2,200 (0.71%) showed an effect of 50% or more. Effects have a minus sign here. Some of the results follow.
target: human ether-à-go-go-related gene (hERG) potassium channel (human, UniProt Q12809); assay: primary screen, population patch clamp on CHO cells stably expressing hERG
Sequence (Q12809 whole entry, looked up): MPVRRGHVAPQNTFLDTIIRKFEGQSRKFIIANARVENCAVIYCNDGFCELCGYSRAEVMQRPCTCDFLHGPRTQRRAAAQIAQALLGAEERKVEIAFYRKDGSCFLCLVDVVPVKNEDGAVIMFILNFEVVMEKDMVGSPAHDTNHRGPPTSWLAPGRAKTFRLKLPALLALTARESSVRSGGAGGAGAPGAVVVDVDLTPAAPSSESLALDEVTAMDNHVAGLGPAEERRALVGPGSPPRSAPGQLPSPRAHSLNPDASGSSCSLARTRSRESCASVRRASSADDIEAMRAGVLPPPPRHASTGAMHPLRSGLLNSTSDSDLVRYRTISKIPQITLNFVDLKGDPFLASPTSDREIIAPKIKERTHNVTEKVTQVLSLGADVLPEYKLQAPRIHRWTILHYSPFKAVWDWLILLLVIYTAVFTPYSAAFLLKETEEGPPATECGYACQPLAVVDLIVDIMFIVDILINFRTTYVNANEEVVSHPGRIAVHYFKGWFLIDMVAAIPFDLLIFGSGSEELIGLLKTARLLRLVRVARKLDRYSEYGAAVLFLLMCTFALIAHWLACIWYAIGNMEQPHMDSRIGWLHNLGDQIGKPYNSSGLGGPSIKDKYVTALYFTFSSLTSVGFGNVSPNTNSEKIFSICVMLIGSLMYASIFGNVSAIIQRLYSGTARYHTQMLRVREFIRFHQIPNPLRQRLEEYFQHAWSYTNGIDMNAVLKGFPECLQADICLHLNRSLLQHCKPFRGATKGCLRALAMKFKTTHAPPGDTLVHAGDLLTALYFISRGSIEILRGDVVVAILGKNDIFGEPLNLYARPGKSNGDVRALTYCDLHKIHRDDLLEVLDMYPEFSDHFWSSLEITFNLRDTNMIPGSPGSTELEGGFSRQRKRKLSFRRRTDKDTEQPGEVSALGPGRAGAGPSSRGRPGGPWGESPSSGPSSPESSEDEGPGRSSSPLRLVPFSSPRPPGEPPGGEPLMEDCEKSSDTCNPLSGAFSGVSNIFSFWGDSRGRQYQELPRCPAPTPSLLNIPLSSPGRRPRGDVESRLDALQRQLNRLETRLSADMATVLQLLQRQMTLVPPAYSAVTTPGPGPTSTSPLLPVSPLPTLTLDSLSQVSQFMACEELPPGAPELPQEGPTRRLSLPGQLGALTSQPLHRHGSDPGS

Compound | hERG current change (%, negative = inhibition) at 1uM [%]
CCCC(=O)Nc1ccccc1NC(=O)c1ccc2c(c1)OCO2 | 18.1
c1ccc(Cn2c(Sc3nnnn3-c3ccccc3)nnc2-c2ccccc2)cc1 | -10.2
O=C(Nc1cc(=O)[nH]c2nc(-c3ccc(Cl)cc3)nn12)c1ccccc1 | 8.93
CCOc1c(Cl)cc(/C=C/C(=O)N(CC)CC(=O)NCc2cccs2)cc1OC | -11
CCOC(=O)c1ccc(Nc2sc(C(=O)c3cccc([N+](=O)[O-])c3)c(N)c2C#N)cc1 | 14.8
COc1ccccc1CNC(=O)C(Cc1c[nH]c2ccccc12)NC(=O)OCc1ccccc1 (centres unmarked) | 1.01
CCOc1ccc(C(=O)c2nc3c(n2O)CCCC3)cc1 | 8.95
COc1ccc(-c2n[nH]c(=S)n2C2CCCCC2)cc1 | 13.6
Cc1ccc(CSC2=NCCN2C(=O)C2CC2)cc1 | 11.7
CCOC(=O)c1sc2ccccc2c1NC(=O)c1coc2ccccc2c1=O | 6.69
CCOCCCn1cnc2c([nH]c3cc(OC)ccc32)c1=O | -0.655
FCCCOc1ccc(-c2nccc(-c3ccc(Cl)cc3)n2)cc1 | 19.6
C=CCn1c(SCC(=O)NC2CCCc3ccccc32)nnc1-c1ccncc1 (centres unmarked) | -0.835
CCOc1ccc(-n2c(Cc3cc(=O)[nH]c(=O)[nH]3)nnc2SCC(=O)Nc2nnc(C)s2)cc1 | 16.6
COc1ccc2c(c1)[nH]c1c(=O)n(/N=C/c3ccc(OC)c(CN4CCCCC4)c3)cnc12 | -16.6
O=S(=O)(Nc1ccc(-c2nc3cccnc3s2)cc1)c1ccc(Cl)s1 | 6.41
CN(Cc1ccco1)C(=O)Cn1c(=O)oc2cc(S(=O)(=O)NCc3ccccc3)ccc21 | 7.85
O=C(c1cnn(C(=O)c2cccc(S(=O)(=O)N3CCOCC3)c2)c1)c1cc(Cl)cc(Cl)c1O | -0.63
CCCCc1ccc(NS(=O)(=O)N(C)C)cc1 | -11.8

Compound | hERG current change (%, negative = inhibition) at 1uM [%]
Cc1nc(COc2ccccc2Cl)sc1-c1ccnc(N)n1 | 7.74
Cc1ccc(-n2c(=O)c3c4c(sc3n3c(C)nnc23)COC(C(C)C)C4)cc1 (centres unmarked) | 7.9
COc1ccc(NC(=O)c2cccc(S(=O)(=O)N(C)c3ccccc3)c2)cn1 | 9.94
Cc1ccccc1N(C)C(=O)C1CCCN(c2ncnc3c2nc2n3CCCCC2)C1 (centres unmarked) | 8.72
CCCCN(C)CCNC(=O)CN1C(=O)CSc2ccc(S(=O)(=O)N3CCOCC3)cc21 | 9.23
Cc1cccc(CN2CCN(Cc3ccc4nonc4c3)CC2CCO)n1 (centres unmarked) | 1.82
CCOc1cc(/C=N/Nc2nc3ccccc3[nH]2)cc(Br)c1OCC(=O)N(C)C | 7.39
Cc1cccc(NC(=O)C(=O)NCCc2c[nH]c3ccccc23)c1C | 6.6
COc1ccc(S(=O)(=O)NNC(=O)Nc2ccccc2OC)c(OC)c1 | 12.6
COC(=O)c1cc(OC)nc(OC)c1 | 17.9
Cc1ccc(N2C(=O)c3ccccc3C2Nc2ccc(S(=O)(=O)N3CCCCC3)cc2)nc1 (centres unmarked) | 13.1
NNC(=O)c1snnc1-c1ccccc1 | 13.6
CCOc1ccccc1NC(=O)CNC(=O)N1CC(=O)Nc2ccccc21 | 17.3
S=C(NCCc1ccc(Cl)cc1)Nc1ccc(Cl)cc1Cl | 7.2
N=C1/C(=C\c2coc3ccccc3c2=O)C(=O)N=C2SC=CN12 | 15.6
Cc1nc(-c2nnc(-c3ccccc3)o2)c(C(F)(F)F)o1 | 8.84
CCSc1nnc(NC(=O)C2CCCN(S(=O)(=O)c3cnc[nH]3)C2)s1 (centres unmarked) | 1.88
Cc1ccccc1CC(=O)N1CCN(C(=O)C2CCCO2)CC1 (centres unmarked) | 19.4
COc1ccc(C2=NS(=O)(=O)N(C)C(C(=O)NCc3ccc(F)cc3)=C2)cc1OC | -18.2

Compound | hERG current change (%, negative = inhibition) at 1uM [%]
COc1ccc(OC)c(S(=O)(=O)NC(N)=NCCc2ccccc2)c1 | 8.34
CC(=O)N1c2ccc(S(=O)(=O)N3CCCCC3)cc2CC1C(=O)NCc1cccc(Cl)c1 (centres unmarked) | 3.27
CC1CCC2(CC1)NC(=O)N(CC(=O)c1ccc[nH]1)C2=O (centres unmarked) | 1.31
O=C(NC(=S)Nc1cccc2ncccc12)c1ccco1 | 13.5
COc1ccc(NC(=O)/C(=C/c2cccs2)NC(=O)c2ccco2)cc1 | 0.505
COc1cccc(CN(C)CC(=O)Nc2sc3c(c2C#N)CCC3)c1 | 6.42
CC1CC(C)CN(S(=O)(=O)N2CCCC(C(=O)NCc3ccccc3Cl)C2)C1 (centres unmarked) | 8
O=C(OCc1cnc(Cl)s1)c1c(F)cccc1F | 11
CC(SC1=NCCS1)C(=O)Nc1nnc(-c2ccc(Br)cc2)s1 (centres unmarked) | -13.5
CC(C)c1ccc(C(=O)NCCCNC(=O)c2cnccn2)cc1 | 7.05
Cc1ccc(NC(=O)CC2Oc3ccc(C)cc3NC2=O)c(C)c1 (centres unmarked) | 14.3
COc1ccc(CCNC(=O)Nc2cccs2)c(OC)c1 | 17.2
COc1ccccc1C(=O)Nc1ccnn1C1CCN(C(=O)c2ccoc2C)CC1 | -7.86
Cc1ccc(CNC(=O)C(C(=O)NCc2ccc(C)o2)c2ncc(C(F)(F)F)cc2Cl)o1 | 14.6
CCCc1nc2ccccc2n1CCOc1ccccc1 | 1.02
CCCCCCN=C(C)c1c(O)n(Cc2ccccc2)c(=O)[nH]c1=O | -0.034
COc1ccc(CNC(=O)CCCNS(=O)(=O)c2cccc3nonc23)cc1 | 7.35
CCc1c(C)nc(N2CCN(c3ccc(F)cc3)CC2)[nH]c1=O | 17
